{
  "source": "PubChem BioAssay AID2100",
  "about": "(National Center for Advancing Translational Sciences (NCATS), 2009)",
  "note": "The campaign covered roughly 300,000 compounds. About 1,200 (0.4%) were called active. Inconclusive means that the source gave no clear call. Such entries were picked first, then a sample of the others. Calls follow the shape of the dose curve; as a rule, active = well fitted inhibition curve with a large enough effect; inconclusive = small, poorly fitted or top-dose-only effect, or another doubt; inactive = no such curve, though single readings can be large or run the other way. A potency beside an inconclusive call is a rough fit, not a confirmed value. Potency is read from the fitted curve at half-maximal effect.",
  "data": [
    {"target": "Lysosomal alpha-glucosidase (Homo sapiens) (UniProt P10253)", "assay": "qHTS Assay for Inhibitors and Activators of Human alpha-Glucosidase Cleavage of Glycogen", "settings": "recombinant GAA, glycogen substrate, Amplex Red glucose oxidase fluorescence; series mostly up to 76.4 µM", "how_it_was_run": "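qHTS, 1536-well; enzyme 4 nM final; cpd up to 77 uM; substrate bovine liver glycogen 30 ug; 50 mM citrate/phosphate pH 5.0, 0.01% Tween-20; 37 C, 40 min; Amplex Red detection 45 min RT; Hill fit → AC50.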", "values": [
      {"smiles": "CCNc1nc(NCC)nc(C(=O)NN)n1", "Potency": "inconclusive: 50.1 µM [inhibitor, single point]"},
      {"smiles": "Cc1nonc1C(=O)N/N=C/c1cccc(O)c1", "Potency": "inactive"},
      {"smiles": "CCC(C)N(C(=O)COC(=O)/C=C/c1ccc(O)c(OC)c1)C1CCS(=O)(=O)C1", "note": "(stereo not drawn)", "Potency": "inconclusive: 20 µM [inhibitor, partial curve]"},
      {"smiles": "C=CCN=c1scc(-c2ccco2)n1/N=C/c1ccc(O)c(O)c1O", "Potency": "inconclusive: 14.1 µM [inhibitor, partial curve]"},
      {"smiles": "Nn1c(C2COc3ccccc3O2)n[nH]c1=S", "note": "(stereo not drawn)", "Potency": "inconclusive: 50.1 µM [inhibitor, single point]"},
      {"smiles": "Cc1cc(C)c(C)c(S(=O)(=O)Nc2ccc(O)cc2)c1C", "Potency": "inconclusive: 5.01 µM [inhibitor, full curve]"},
      {"smiles": "COc1ccc2oc(=O)c(C(=O)Nc3ccccc3-c3ccccc3)cc2c1", "Potency": "inconclusive: 44.3 µM [inhibitor, partial curve, poor fit]"},
      {"smiles": "CCC(CC)=NNc1ccc(S(N)(=O)=O)cc1[N+](=O)[O-]", "Potency": "inconclusive: 14.1 µM [inhibitor, partial curve, poor fit]"},
      {"smiles": "O=c1cc(CN2CCN(S(=O)(=O)c3ccc4c(c3)OCCO4)CC2)c2ccc(O)cc2o1", "Potency": "inconclusive: 28.2 µM [inhibitor, single point]"},
      {"smiles": "c1ccc(N/N=C(\\Cc2nc3ccccc3[nH]2)c2ccccc2)cc1", "Potency": "inconclusive: 28.2 µM [inhibitor, single point]"},
      {"smiles": "COc1cccc(NS(=O)(=O)c2ccc3[nH]cc(C(=O)NCCCOC(C)C)c(=O)c3c2)c1", "Potency": "inconclusive: 19.8 µM [inhibitor, partial curve]"},
      {"smiles": "N#CC1=C(N)SC2(CCCCC2)SC1c1ccccc1", "note": "(stereo not drawn)", "Potency": "inconclusive: 44.7 µM [inhibitor, single point]"},
      {"smiles": "Cn1c(SCC(=O)c2ccc(O)c(O)c2)nnc1-c1ccccc1", "Potency": "active: 1.78 µM"},
      {"smiles": "CC1(C)CN2C(=S)N(c3ccccc3)C(c3ccccc3)N2C1", "note": "(stereo not drawn)", "Potency": "inconclusive: 35.5 µM [inhibitor, single point]"},
      {"smiles": "C(=N\\Nc1ccccn1)/c1cccnc1", "Potency": "inconclusive: 35.5 µM [inhibitor, partial curve]"},
      {"smiles": "CC(=C/c1ccccc1)/C=N/n1c(-c2ccco2)n[nH]c1=S", "Potency": "active: 24.9 µM"},
      {"smiles": "COc1cc(CNc2ccc3c(c2)CCC3)cc(OC)c1O", "Potency": "active: 25.1 µM"},
      {"smiles": "COc1ccc(N=C/C=C2/C=C(c3ccccc3)OC(C)(C)O2)cc1", "Potency": "inconclusive: 9.92 µM [inhibitor, partial curve]"},
      {"smiles": "COc1ccccc1Nc1nc(-c2cccnc2)cs1", "Potency": "inconclusive: 14.1 µM [inhibitor, partial curve]"},
      {"smiles": "COc1ccc(NC2=CC(=S)NC(C)(C)C2)cc1", "Potency": "inconclusive: 28 µM [inhibitor, single point]"},
      {"smiles": "O=C(NCC(c1cccnc1)N1CCc2ccccc21)c1ccccc1Br", "note": "(stereo not drawn)", "Potency": "inconclusive: 7.08 µM [inhibitor, partial curve]"},
      {"smiles": "CCOC(=O)C1CCN(Cc2cc(C(C)(C)C)c(O)c(C(C)(C)C)c2)CC1", "Potency": "inconclusive: 8.84 µM [inhibitor, partial curve]"},
      {"smiles": "CC(C)(C)c1ccc(O)c(N=Cc2cc(Br)ccc2O)c1", "Potency": "inconclusive: 22.4 µM [inhibitor, partial curve]"},
      {"smiles": "S=c1[nH]c2cc(Cl)ccc2s1", "Potency": "inconclusive: 28 µM [inhibitor, single point]"},
      {"smiles": "O=C(CCc1c[nH]c2ccccc12)N[C@@H](Cc1c[nH]c2ccc(O)cc12)C(=O)O", "Potency": "inconclusive: 8.91 µM [inhibitor, single point]"},
      {"smiles": "O=C(CN1CCN(c2ccc(O)cc2)CC1)Nc1cc(S(=O)(=O)N2CCCCC2)ccc1Cl", "Potency": "inconclusive: 3.16 µM [inhibitor, full curve]"},
      {"smiles": "CC1(C)CC(CC(=O)NNc2nc(-c3ccccc3)cs2)C(=O)O1", "note": "(stereo not drawn)", "Potency": "inconclusive: 11.2 µM [inhibitor, single point]"},
      {"smiles": "Cc1ccc2oc(=O)c(/C=C(\\O)c3sc(C)nc3C)nc2c1", "Potency": "inconclusive: 1.12 µM [inhibitor, full curve]"},
      {"smiles": "COc1cc(/C=N/Nc2ccccn2)ccc1O", "Potency": "active: 25.1 µM"},
      {"smiles": "CCc1cc(-c2n[nH]c(CCC(=O)O)c2-c2nc3ccccc3n2C)c(O)cc1O", "Potency": "inconclusive: 12.6 µM [inhibitor, partial curve]"},
      {"smiles": "O=C(Nc1cc(C(F)(F)F)ccc1Cl)C(Sc1nnc(-c2cccs2)o1)c1ccccc1", "note": "(stereo not drawn)", "Potency": "inconclusive: 15.8 µM [inhibitor, partial curve]"},
      {"smiles": "CCCCCOCC1CC(C/C(C)=N/Nc2nc(-c3ccccc3)cs2)C(=O)O1", "note": "(stereo not drawn)", "Potency": "inconclusive: 19.8 µM [inhibitor, single point]"},
      {"smiles": "CCOC(=O)c1c(-c2ccccc2)[nH]c2ccc(O)cc12", "Potency": "inconclusive: 19.8 µM [inhibitor, partial curve]"},
      {"smiles": "Cc1cc(=O)[nH]c(NN)n1", "Potency": "inconclusive: 50.1 µM [inhibitor, single point]"},
      {"smiles": "COc1ccccc1NC(=S)NNC(=O)c1c(Cl)c(C)nn1C", "Potency": "inconclusive: 31.6 µM [inhibitor, single point]"},
      {"smiles": "Cc1ccc(NC(=O)Cn2nnnc2-c2ccccc2N)cc1", "Potency": "inactive"},
      {"smiles": "CC(=O)c1c(C)n(CCO)c2ccc(O)cc12", "Potency": "inconclusive: 22.2 µM [inhibitor, single point]"},
      {"smiles": "CCOc1cc(CNc2ccc(N(C)C)cc2)cc(Br)c1OCC(=O)NC(C)(C)C", "Potency": "active: 20 µM"},
      {"smiles": "CCc1cc(=O)oc2cc(C)cc(OCC(=O)NC(Cc3c[nH]c4ccc(O)cc34)C(=O)O)c12", "note": "(stereo not drawn)", "Potency": "inconclusive: 7.08 µM [inhibitor, full curve]"},
      {"smiles": "C=CCN1C(=O)C2(NNc3ccccc3O2)c2ccccc21", "note": "(stereo not drawn)", "Potency": "inconclusive: 24.9 µM [inhibitor, partial curve]"},
      {"smiles": "CCNc1c([N+](=O)[O-])ncn1C", "Potency": "inactive"},
      {"smiles": "COc1ccc(OCCn2c(C3CC(=O)N(c4ccc(F)cc4)C3)nc3ccccc32)cc1", "note": "(stereo not drawn)", "Potency": "inconclusive: 6.31 µM [inhibitor, partial curve]"},
      {"smiles": "CCCCOC(=O)c1ccc(NS(=O)(=O)c2c(C)nc3scc(C)n3c2=O)cc1", "Potency": "inactive"}
    ]}
  ]
}
